Measured values taken from the supplement of paper PMC9446081.
About 220 (0.56%) of roughly 39,000 compounds showed activity. The list shows a part of the results.
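Further: static incubation at 37 °C against the wild-type strain, values averaged over two biological replicates.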

The molecules below were run on Escherichia coli K-12 BW25113 (assay: relative growth (OD600 normalised to plate interquartile mean) (fraction); higher = less growth inhibition, active = 0.2 or less). Settings: 50 µM; LB; incubation time: overnight (16-24 h).
In the case of `C[C@@H]1CN([C@H](C)CO)C(=O)c2cccc(NC(=O)c3nc4ccccc4s3)c2O[C@H]1CN(C)S(=O)(=O)c1cn(C)cn1`, the relative growth is reported as inactive: 1.
`C[C@@H]1CCCCO[C@H](CN(C)Cc2ccncc2)[C@H](C)CN([C@H](C)CO)C(=O)c2cc(NC(=O)NC3CCCCC3)ccc2O1` was tested, and the relative growth was inactive: 0.997.
With `COc1ccc(NC(=O)Nc2ccc3c(c2)CC(=O)N([C@H](C)CO)C[C@H](C)[C@@H](CN(C)CC2CCCCC2)O3)cc1` the relative growth was inactive: 0.984.
In the case of `C=C1CC(=O)C2=C(C)C[C@H](O[C@@H]3O[C@H](CO)[C@@H](O)[C@H](O)[C@H]3O)[C@H]3C(=C)C(=O)O[C@@H]3[C@@H]12`, the relative growth is reported as inactive: 1.01.
In the case of `CSc1nc(C)cc(OCCO)n1`, the relative growth is reported as inactive: 1.03.
`CC(C)NC(=O)Nc1ccc2c(c1)CC(=O)N([C@H](C)CO)C[C@@H](C)[C@@H](CN(C)S(=O)(=O)c1cn(C)cn1)O2` was tested, and the relative growth was inactive: 0.902.
`C[C@@H]1CCCCO[C@@H](CN(C)C(=O)Nc2cccc3ccccc23)[C@@H](C)CN([C@H](C)CO)C(=O)c2cc(NS(=O)(=O)c3cccs3)ccc2O1` was tested, and the relative growth was inactive: 1.01.
`C/C=C/c1ccc2c(c1)O[C@H](CN(C)S(=O)(=O)c1ccccc1OC)[C@H](C)CN([C@H](C)CO)S2(=O)=O` was tested, and the relative growth was inactive: 1.01.
In the case of `CCC(=O)OC(CC(=O)O)C[N+](C)(C)C.[Cl-]` (configuration not stated), the relative growth is reported as inactive: 1.05.
`Cc1ccc(S(=O)(=O)Nc2ccc3c(c2)C(=O)N([C@@H](C)CO)C[C@@H](C)[C@H](CN(C)Cc2ccc(Cl)c(Cl)c2)O3)cc1` was tested, and the relative growth was inactive: 0.979.
`C[C@H]1CN([C@@H](C)CO)C(=O)CCCn2nncc2CO[C@@H]1CN(C)S(=O)(=O)c1ccc2ccccc2c1` was tested, and the relative growth was inactive: 0.969.
For `C=CCN(C(=O)[C@H]1N(C(C)(C)CO)C(=O)[C@H]2[C@H](C(=O)O)[C@@H]3C=C[C@@]21O3)C(C)(C)C`, the relative growth was inactive: 1.01.
In the case of `CC(C)NC(=O)N(C)C[C@H]1Oc2ccc(NS(=O)(=O)c3cccs3)cc2C(=O)N([C@H](C)CO)C[C@@H]1C`, the relative growth is reported as inactive: 1.
For `Cc1noc(C)c1NC(=O)Nc1ccc2c(c1)C(=O)N([C@H](C)CO)C[C@H](C)[C@H](CN(C)Cc1ccc(Cl)c(Cl)c1)O2`, the relative growth was inactive: 0.991.
`C[C@@H]1CN([C@@H](C)CO)C(=O)c2cc(NC(=O)Nc3ccc4c(c3)OCO4)ccc2O[C@@H](C)CCCCO[C@@H]1CN(C)S(=O)(=O)c1ccccc1` was tested, and the relative growth was inactive: 1.01.
`CON=C1CC2(CC3CC(CC=C(C)CC(C)C=CC=C4COC5C(O)C(C)=CC(C(=O)O3)C45O)O2)OC(C(C)=CC(C)C)C1C` (configuration not stated) was tested, and the relative growth was inactive: 0.891.
With `COc1ccc(NC(=O)Nc2ccc3c(c2)CC(=O)N([C@H](C)CO)C[C@H](C)[C@H](CN(C)S(=O)(=O)c2cn(C)cn2)O3)cc1` the relative growth was inactive: 0.994.
With `C[C@@H]1CN([C@@H](C)CO)C(=O)c2cc(NC(=O)Nc3ccccc3)ccc2O[C@@H](C)CCCCO[C@@H]1CN(C)C(=O)Nc1ccc2c(c1)OCO2` the relative growth was inactive: 1.02.
In the case of `Cc1ccc(S(=O)(=O)Nc2ccc3c(c2)C(=O)N([C@H](C)CO)C[C@@H](C)[C@@H](CN(C)C(=O)Cc2ccccc2)OCCCC[C@H](C)O3)cc1`, the relative growth is reported as inactive: 1.01.
In the case of `O=C(C[C@@H]1CC[C@@H]2[C@H](COC[C@H](O)CN2CC2CCOCC2)O1)N1CCOCC1`, the relative growth is reported as inactive: 0.994.
In the case of `COc1ccc(S(=O)(=O)N(C)C[C@@H]2OCCCC[C@@H](C)Oc3ccc(NC(=O)Nc4ccccc4)cc3C(=O)N([C@@H](C)CO)C[C@H]2C)cc1`, the relative growth is reported as inactive: 1.02.
`C[C@@H]1CN([C@H](C)CO)C(=O)Cc2cc(NC(=O)Cc3cn(C)c4ccccc34)ccc2O[C@H]1CN(C)Cc1ccc(C(F)(F)F)cc1` was tested, and the relative growth was inactive: 0.983.
In the case of `C[C@H]1CN([C@@H](C)CO)C(=O)Cc2cc(NS(=O)(=O)c3ccccc3)ccc2O[C@H]1CN(C)Cc1ccc(Cl)c(Cl)c1`, the relative growth is reported as inactive: 1.01.
In the case of `COc1ccc(S(=O)(=O)N(C)C[C@@H]2Oc3ccc(NC(=O)CCN4CCOCC4)cc3C(=O)N([C@@H](C)CO)C[C@H]2C)cc1`, the relative growth is reported as inactive: 1.
With `C[C@H](CO)N1C[C@H](C)[C@H](CN(C)Cc2cccc(F)c2)Oc2cc(C#CC3CC3)ccc2S1(=O)=O` the relative growth was inactive: 0.978.
`C[C@@H]1CCCCO[C@H](CN(C)S(=O)(=O)c2cn(C)cn2)[C@H](C)CN([C@@H](C)CO)C(=O)c2cc(NS(=O)(=O)c3cn(C)cn3)ccc2O1` was tested, and the relative growth was inactive: 0.983.
`C[C@H]1CN([C@@H](C)CO)C(=O)c2cccc(NC(=O)Nc3ccc(C(F)(F)F)cc3)c2O[C@H]1CN(C)CC1CCCCC1` was tested, and the relative growth was inactive: 0.92.
In the case of `COc1ccc([C@@H]2C/C=C\C[C@@H](c3cccc(Cl)c3)NC(=O)[C@@H](c3ccccc3)CC(=O)N2)c(OC)c1`, the relative growth is reported as inactive: 1.
In the case of `COc1c(OC)c2occc2c2oc(=O)ccc12`, the relative growth is reported as inactive: 1.04.
`O=C(C[C@@H]1CC[C@H]2[C@@H](COC[C@@H](O)CN2C(=O)c2ccccc2)O1)N1CCOCC1` was tested, and the relative growth was inactive: 0.993.
In the case of `C[C@@H]1CN([C@H](C)CO)C(=O)c2cc(C#Cc3ccccc3F)cnc2O[C@@H]1CN(C)C(=O)Cc1cccnc1`, the relative growth is reported as inactive: 0.996.
In the case of `C[C@@H]1CCCCO[C@@H](CN(C)S(=O)(=O)c2cn(C)cn2)[C@@H](C)CN([C@@H](C)CO)C(=O)c2cc(NS(=O)(=O)c3ccc(F)cc3)ccc2O1`, the relative growth is reported as inactive: 0.996.
In the case of `Cc1ccc(CNC[C@H]2Cn3nncc3CO2)o1`, the relative growth is reported as inactive: 1.01.
For `CC(C)NC(=O)N(C)C[C@@H]1Oc2ccc(NS(=O)(=O)c3ccc(Cl)cc3)cc2C(=O)N([C@H](C)CO)C[C@H]1C`, the relative growth was inactive: 0.984.
`CCNC(=O)[C@H]1[C@H](CO)[C@H]2Cn3c(ccc(-c4cccc(C(=O)N(C)C)c4)c3=O)[C@@H]1N2` was tested, and the relative growth was inactive: 0.983.
`C[C@H]1CN([C@@H](C)CO)C(=O)c2cc(NC(=O)CCCCCC(=O)Nc3ccccc3N)ccc2O[C@@H]1CN(C)C(=O)Nc1cccc2ccccc12` was tested, and the relative growth was inactive: 0.965.
With `C=CC[C@@H](CC(=O)N(CCO)Cc1ccccc1)C(=O)N[C@@H](COC(=O)[C@@H](CC=C)Cc1ccc(F)cc1)Cc1c[nH]c2ccccc12` the relative growth was inactive: 1.12.
